# From PubChem BioAssay AID540317 (National Center for Advancing Translational Sciences (NCATS), 2011)
# Out of some 390,000 compounds screened, about 2,200 (0.56%) were called active. Inconclusive means that the source gave no clear call. Such entries were picked first, then a sample of the others. The call rests on the fitted dose curve; in most records, active means well fitted inhibition curve with a large enough effect; inconclusive means small, poorly fitted or top-dose-only effect; inactive means no such curve, though single readings can be large or run the other way. Where the call is inconclusive, the potency comes from a doubtful curve fit.
# Biological target: Chromobox protein homolog 1 (Homo sapiens) (UniProt P83916)
# Chain of UniProt P83916 (P83916 whole entry, looked up): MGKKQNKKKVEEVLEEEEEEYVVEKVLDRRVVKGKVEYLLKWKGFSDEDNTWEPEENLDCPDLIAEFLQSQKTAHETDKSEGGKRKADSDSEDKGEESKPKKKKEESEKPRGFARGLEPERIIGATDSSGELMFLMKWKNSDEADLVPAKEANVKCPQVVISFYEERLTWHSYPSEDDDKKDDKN
# Experiment: HTS for Inhibitors of HP1-beta Chromodomain Interactions with Methylated Histone Tails; further: nearly all actives have a fitted effect of over 70% in size
# Conditions: AlphaScreen HP1-beta / biotin-H3K9me3 peptide binding; series mostly up to 114 µM; activity change, negative = inhibition: at the top concentration
# How it was run: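 HP1-beta protein (50 nM final) preincubated 30 min at room temperature with biotinylated H3(1-18)K9me3 peptide (50 nM) in PBS pH 7.4, 0.01% Tween-20, then compound added for 30 min. AlphaScreen streptavidin donor/nickel chelate acceptor beads (10 ug/mL final), 30 min dark, luminescence read.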
# Potency means the concentration at half of the fitted maximal effect; tags describe the fitted curve by direction and shape.
SMILES,"activity change, negative = inhibition",Potency
CC(Oc1ccc(Cl)cc1Cl)c1ccn[nH]1 (stereo not drawn),inactive: 37.6%,
Cc1ccc(S(=O)(=O)N2CCN(C(=O)/C=C/c3ccco3)CC2)cc1,,"inconclusive: 79.4 µM [inhibitor, partial curve]"
COc1ccc(C(=O)c2sc(Nc3ccc(NC(C)=O)cc3)nc2C)cc1,inactive: 8.54%,
CCOc1ccc(OCC(=O)c2c(O)c3ccccc3oc2=O)cc1,,"inconclusive: 17.8 µM [inhibitor, full curve, poor fit]"
COCCCNC(=S)N1CCN(c2nc(-c3ccc(F)cc3)cs2)CC1,,"inconclusive: 56.2 µM [inhibitor, partial curve]"
Cc1ccc(C(=O)NC2(O)C(=O)c3ccccc3C2=O)cc1C,inactive: 14.6%,
COc1cc(NC(=O)CSc2ccc(-c3sc(-c4ccccc4)nc3C)nn2)cc(OC)c1,inactive: 41.6%,
O=C(O)c1cc(-c2ccc(N3CCOCC3)cc2)nn1-c1ccccc1Cl,inactive: 30.8%,
COc1ccc(CN2CCN(S(=O)(=O)c3ccccc3)CC2)c(OC)c1,,"inconclusive: 14.1 µM [inhibitor, partial curve, poor fit]"
O=C(NCc1n[nH]c(=O)c2ccccc12)C1CC(=O)N(c2ccccc2)C1 (stereo not drawn),inactive: 32.4%,
CCCCCc1cc(=O)oc2c(C(CCN(CC)CC)c3cc(OC)c(OC)c(OC)c3)c(OC)cc(OC)c12 (stereo not drawn),inactive: 11.8%,
O=C(c1ccccc1Nc1ccc(SC(F)F)cc1)N1CCCCC1,,"inconclusive: 0.794 µM [inhibitor, full curve, poor fit]"
CC1CCCN(C(=O)C2CCN(CCCc3ccccc3)CC2)C1 (stereo not drawn),,"inconclusive: 56.2 µM [inhibitor, partial curve, poor fit]"
Cc1cc(C)nc(NS(=O)(=O)c2ccc(Br)s2)c1,inactive: 30.1%,
CCN1C(=O)/C(=C2/C(=O)N3c4c(cc(OC(C)=O)cc42)C(C)=CC3(C)C)SC1=S,,"inconclusive: 10 µM [inhibitor, partial curve, poor fit]"
CS/C(N)=N/N=C/c1cc(C)ccc1O,inactive: 5.23%,
Cn1c(-c2ccc(F)cc2)cnc1NCc1ccc(F)cc1F,,"inconclusive: 50.1 µM [inhibitor, partial curve, poor fit]"
Cc1ccc(-c2cc(C(=O)Nc3ccc(S(=O)(=O)Nc4onc(C)c4C)cc3)c3ccccc3n2)cc1,,"inconclusive: 39.8 µM [inhibitor, partial curve, poor fit]"
CN(C)CCCN(C(=O)c1ccc(S(=O)(=O)N2CCCCCC2)cc1)c1nc2c(F)cccc2s1,inactive: -10.7%,
CCCS(=O)(=O)N1CCN(CCCc2ccccc2)CC1,,"inconclusive: 50.1 µM [inhibitor, partial curve]"
CCOC(=O)CCc1c(C)c2ccc(OCc3nn[nH]n3)cc2oc1=O,,"inconclusive: 39.8 µM [inhibitor, single point]"
O=C(Nc1cc(S(=O)(=O)N2CCOCC2)ccc1N1CCCC1)c1ccc2c(c1)S(=O)(=O)c1ccccc1C2=O,,active: 3.98 µM
Clc1ccccc1C1Nc2cccc3cccc(c23)N1,,"inconclusive: 22.4 µM [inhibitor, partial curve, poor fit]"
Cc1ccc(/C=C2\C(=O)ON=C2c2ccccc2)o1,,"inconclusive: 35.5 µM [inhibitor, full curve]"
Cc1ccc(S(=O)(=O)N(C)CC(=O)N2CCOCC2)cc1,,"inconclusive: 39.8 µM [inhibitor, partial curve, poor fit]"

SMILES,"activity change, negative = inhibition",Potency
O=C(CCCCn1c(=O)c2ccccc2n(Cc2ccccc2F)c1=O)NCc1ccccc1Cl,inactive: 1.61%,
CCC(Oc1ccccc1)C(=O)Nc1ccc(OCc2cc(=O)n3ccc(C)cc3n2)cc1 (stereo not drawn),inactive: 26.9% [at 57 µM],
CCOc1ccc(NC(=S)NC(=O)/C=C/c2ccc(OC)c(OC)c2)c([N+](=O)[O-])c1,inactive: -25.2%,
Nc1nc(SC2c3cccc4cccc(c34)C2NS(=O)(=O)c2ccccc2)n[nH]1 (stereo not drawn),,"inconclusive: 39.8 µM [inhibitor, single point]"
CCNc1ccccc(C(=O)/C=C/c2ccc3c(c2)OCO3)c1=O,,"inconclusive: 50.1 µM [inhibitor, single point]"
CCCN1C(=O)/C(=c2\sc3nc(=O)c(Cc4ccc(C)cc4)nn3c2=O)c2ccccc21,,"inconclusive: 14.1 µM [inhibitor, partial curve]"
Cc1ccccc1OCCNc1ccc(C(F)(F)F)cc1[N+](=O)[O-],,"inconclusive: 35.5 µM [inhibitor, partial curve]"
Cc1nnc(SCCN2CCOCC2)n1C,,"inconclusive: 17.8 µM [inhibitor, full curve]"
O=C(CN1CCN(CC(=O)Nc2ccccc2F)CC1)Nc1ccc(Cl)c(C(F)(F)F)c1,inactive: 35.1% [at 57 µM],
CCCOc1ccccc1-c1nc2n[nH]nc2c(=O)[nH]1,inactive: 40.9%,
OC(COCc1cccs1)CN1CCN(c2cccc(Cl)c2)CC1 (stereo not drawn),,"inconclusive: 44.7 µM [inhibitor, partial curve]"
Cc1cc2ccccc2nc1Br,,"inconclusive: 35.5 µM [inhibitor, single point]"
COc1ccc(Cc2nnc(NC(=O)Cc3cccs3)s2)cc1OC,,"inconclusive: 50.1 µM [inhibitor, partial curve, poor fit]"
O=C(CSc1ccccc1)NCCCc1ccccc1,inactive: 40.8%,
CCC1=C(c2ccc(C)cc2)S(=O)(=O)N=C1N1CCC(C(=O)N2CCCCC2)CC1,,"inconclusive: 89.1 µM [inhibitor, single point]"
COc1cc(NC(=O)c2ccc(Cl)cc2)c(OC)cc1NC(=O)CN1CCCCC1,,"inconclusive: 15.8 µM [inhibitor, partial curve, poor fit]"
Cc1ccc(C)c2sc(NC(=O)CN3C(=O)CCC3=O)nc12,inactive: 27%,
N#CCCn1cc(CNCc2cccnc2)c(-c2ccccc2)n1,,"inconclusive: 12.6 µM [inhibitor, partial curve, poor fit]"
Cc1ccc(C2C(C#N)=C(N)Oc3n[nH]c(-c4ccccc4)c32)o1 (stereo not drawn),,"inconclusive: 7.94 µM [inhibitor, full curve]"
Cc1ccc(S(=O)(=O)c2nc(C(C)(C)C)oc2N2CCOCC2)cc1,,active: 50.1 µM
O=C(NCCc1ccccc1)C1CCN(Cc2ccccc2F)CC1,,active: 25.1 µM
COCC(=O)OCC(=O)c1cc(C)n(-c2ccc(Br)cc2)c1C,inactive: -13.5%,
COc1ccc(CCN2C(=S)N(c3ccc(Cl)cc3)C(=O)C2CC(N)=O)cc1OC (stereo not drawn),,"inconclusive: 79.4 µM [inhibitor, single point]"
C/C=C/COc1nc2c(c(=O)n(C)c(=O)n2C)n1C,,"inconclusive: 8.91 µM [inhibitor, single point]"
O=C(COC(=O)c1cccc2c1C(=O)c1ccccc1C2=O)NC1CCCCC1,,"inconclusive: 39.8 µM [inhibitor, partial curve]"

SMILES,"activity change, negative = inhibition",Potency
COc1ccc(NC(=O)CCC(=O)N/N=C/c2ccncc2)cc1,inactive: 52.8%,
CCN1CCN(C(=O)c2c(C)nn(-c3ccc(F)cc3)c2-n2cccc2)CC1,inactive: 15.9%,
O=C(CSc1oc(-c2cccs2)nc1S(=O)(=O)c1ccc(F)cc1)NCC1CCCO1 (stereo not drawn),inactive: 30%,
COc1cccc(-c2nc(N3CC(C)CC(C)C3)c3ccccc3n2)c1O (stereo not drawn),,"inconclusive: 35.5 µM [inhibitor, partial curve]"
CN(C)c1ccc(C(CNS(=O)(=O)c2ccc3ccccc3c2)c2c[nH]c3ccccc23)cc1 (stereo not drawn),,"inconclusive: 15.8 µM [inhibitor, full curve, poor fit]"
Cc1c(C(=O)OCCOc2ccccc2)[nH]c2c1C(=O)CC(c1ccccc1Cl)C2 (stereo not drawn),inactive: 32%,
Cc1noc(NS(=O)(=O)c2ccc(N/C=C\C(=O)c3cccs3)cc2)c1C,,"inconclusive: 79.4 µM [inhibitor, partial curve, poor fit]"
C/C(CC(=O)NC1CCCCC1)=N\NC(=O)c1ccccn1,inactive: 34.7%,
CN=c1scc(-c2ccc(OC)cc2)n1/N=C(\C)c1cccnc1,,active: 44.7 µM
Cc1cccc(N2CCN(c3ccc(NC(=O)/C=C\C(=O)O)cc3)CC2)c1,,"inconclusive: 79.4 µM [inhibitor, partial curve, poor fit]"
CCCOCC1CC(CCc2nc(=S)[nH][nH]2)C(=O)O1 (stereo not drawn),,"inconclusive: 79.4 µM [inhibitor, single point]"
Cc1ccc2nc(SCC(=O)NCc3ccccc3Cl)nc(=O)n2c1,inactive: 35.2%,
COC(=O)c1cc(C)nc(Sc2ccccc2N)n1,,"inconclusive: 28.2 µM [inhibitor, partial curve]"
COc1cccc(CNC(=O)C2=C(C)C(=O)OC23CCCCCC3)c1,inactive: 30.4%,
C=CCNC(=S)N/N=C(\C)c1cccc(NC(C)=O)c1,inactive: 60.4%,
CCN(CC)CCOc1ccc(/C(=C(/Cl)c2ccccc2)c2ccccc2)cc1,,"inconclusive: 31.6 µM [inhibitor, partial curve]"
Cc1cc(C)c(Cn2cnc3nc4c(cc3c2=O)CCCC4)c(C)c1,inactive: 10.6% [at 57 µM],
COc1cc(C=C(c2nc3ccccc3s2)c2nc3ccccc3s2)cc(OC)c1O,,"inconclusive: 15.8 µM [inhibitor, full curve, poor fit]"
COc1ccccc1NC(=O)Nc1nc(CC(=O)NCc2cccnc2)cs1,inactive: 37.6%,
O=C(CCc1nc2ccccc2c(=O)[nH]1)Nc1ccc(N2CCCCC2)cc1,inactive: 5.07%,
Cc1ccccc1OCC(=O)OCC(=O)c1c[nH]c2ccccc12,inactive: 27.7%,
COc1ccc(Nc2nc(NCc3ccco3)nc(N/N=C/c3ccccc3Cl)n2)cc1,,"inconclusive: 35.5 µM [inhibitor, single point]"
COc1cc(-c2nc(-c3ccccc3)c(-c3ccc(Br)cc3)[nH]2)cc(OC)c1O,,"inconclusive: 35.5 µM [inhibitor, partial curve]"
